Measurements reported in the supplement of paper PMC10338343.
± gives the standard deviation. The full ranking holds about 3,000 sequences; the median of “pre-steady-state target cleavage rate” is about 0.0079, and the highest 2% start at about 0.2. Only a part is listed here, and it is no random draw.

Each sequence was assayed on MILI (PIWIL2) piRISC loaded with piRNA #2 (26 nt) (assay: pre-steady-state target cleavage rate (min^-1); MIWI and MILI are mouse PIWI proteins and EfPiwi is from a freshwater sponge; tags in brackets are library labels; higher = faster piRNA-guided slicing of the target). Settings: guide: piRNA #2 5'p-UUAGGUAACCCAGUAGAUCCAGAGGA; auxiliary factor: 500 nM mouse GTSF1.
Outline: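 Reactions were run for 0–8 or 0–960 min at 33 °C in HEPES–potassium acetate buffer, combining 1 nM active affinity-purified piRISC with one synthetic guide, […] transcribed, DNA-blocked target RNA library and, in some cases, 500 nM GTSF1 partner protein. Sequencing of uncleaved targets followed, with normalisation to depth and to weakly complementary targets. Three trials were pooled, k3 was capped at 0.0001 min^-1, and the pre-steady-state cleavage rate was taken from a burst-and-steady-state fit.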
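Also: 1 nM active piRISC with 0.1 nM target library at 33 °C single turnover.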

Row | Sequence | pre-steady-state target cleavage rate
1 | CUUAAGGAGUGGAUCUACUGGGUUACCUA | 0.0639 ± 0.018
2 | CUUAUCCUCUGGAACUACUGGGUAACCUAA | 0.0599 ± 0.022
3 | CUUAUCCUGUGGAACUACUGGGUUACCUAA | 0.0386 ± 0.017
4 | CUUAUCCUCUGCUUCUACUGGGUUACCUAA | 0.157 ± 0.026
5 | CUUAACCUGAGGAUCUACUGGGUUACCUAA | 0.0229 ± 0.01
6 | CUUAAGGUCUGCAUCAACUGGGUUACCUAA | 0.0218 ± 0.011
7 | CUUAACCACUCGAUCUACUGGGUUACCUAA | 0.119 ± 0.022
8 | CUUAAGGAGUGGAUCUACUGGGUAUACCUAA | 0.0254 ± 0.0083
9 | CUUAAGGUCUGCUUCUACUGGGUUACCUAA | 0.033 ± 0.011
10 | CUUAACCUCUGGAUCUACUGGGUUACCAUAA | 0.13 ± 0.03
11 | CUUAAGGUCAGGAUCUACAGGGUUACCUAA | 0.0472 ± 0.013
12 | CUUAAGCUCAGGAUCUACUGGGUUAGCUAA | 0.00585 ± 0.0052
13 | CUUAACCUCUGGAUCUACUGGGUUAUCCUAA | 0.117 ± 0.026
14 | CUUAAGGAGAGGAUCUACUGGGUUACCUAC [g2:g20:cont:t1C] | 0.0103 ± 0.0041
15 | CUUAACCUGUGGAUCUACUGCGUUACCUAA | 0.0105 ± 0.0061
16 | CUUAAGGUCAGGAUCAACUGGGUUACCUAA | 0.00947 ± 0.0062
17 | CUUAAGGUCUCGAUCUACAGGGUUACCUAA | 0.073 ± 0.013
18 | CUUAAGGUCUAGAUCUACUGGGUUACCUAA | 0.0905 ± 0.017
19 | CUUAAGCUCUCGAUCAACUGGGUUACCUAA | 0.088 ± 0.019
20 | CUUAAGCUCUGGAAGAACUGGGUUACCUAA | 0.0134 ± 0.0085
21 | CUUAAGGAGUGGAAGUACUGGGUUACCUAA | 0.00681 ± 0.0045
22 | CUUAUCCUCUGGAUCUACUGGGUAUACCUAA | 0.0987 ± 0.018
23 | CUUAAGGACUGGAUCUAGUGGGAUACCUAA | 0.00711 ± 0.0055
24 | CUUAUCCUCUGCAUCUAGUGGGUUACCUAA | 0.0659 ± 0.016

Row | Sequence | pre-steady-state target cleavage rate
25 | CUUAAGGUCUGGAUCAACUGGGUUACCUUA | 0.029 ± 0.008
26 | CUUAUCCGUCUGGAUCUACUGGGUUACCUAA | 0.0798 ± 0.016
27 | CUUAAGGACUGGAUCAACAGGGUUACCUAA | 0.027 ± 0.0096
28 | CUUAAGGAGAGCGAUCUACUGGGUUACCUAA | 0.00459 ± 0.0037
29 | CUUAAGGAUUGGAUCUACUGGGUUACCUAA | 0.0475 ± 0.015
30 | CUUAAGGAGUGGAUCUACAGGGUUACCUUA | 0.043 ± 0.0094
31 | CUUAAGGACUGGAUCUCCUGGGUUACCUAA | 0.0127 ± 0.0073
32 | CUUAACCUCUGGAUCGUACUGGGUUACCUAA | 0.00644 ± 0.0035
33 | CUUAAGGAGACCUAGUACGGGUUACCUAA | < 0.0001
34 | CUUAAGGUCUGGAUCUACUGGGUUACCUGAA | 0.0831 ± 0.035
35 | CUUAAGGAGACGAUCUACAGGGUAACCUAA | 0.00518 ± 0.004
36 | CUUAACCUCUGGAUGUACUGGGUUACCUUA | 0.105 ± 0.027
37 | CUUAACCUCUGGAUCUACUGGUUACCUAA | 0.00574 ± 0.0037
38 | CUUAACCACUGGAUCUAGUGGGUUACCUAA | 0.0649 ± 0.012
39 | CUUAAGCACUGGAUGUACUGGGUUACCUAA | 0.11 ± 0.022
40 | CUUAACCUCUGGAGCUACUGGGUUACCUAA | 0.226 ± 0.049
41 | CUUAUCCUCUGGAUCUACUGGGUAACGUAA | 0.0633 ± 0.019
42 | CUUAUUCCUCUGGAUCUACUGGGUUACCUAA | 0.106 ± 0.025
43 | CUUAAGCUCUGGAUCAACUGGGUUACCAAA | 0.0443 ± 0.0094
44 | CUUAACCUCUGGAUGCUACUGGGUUACCUAA | 0.124 ± 0.029
45 | CUUAAGCUCUGGAUCUUCUGGGUAACCUAA | 0.0173 ± 0.0059
46 | CUUAAGCUCUGGAUCUACUGGGUUAACCUAA | 0.0621 ± 0.013
47 | CUUAAGGAGACCUAGAUGAGUGGUUACCUAA | < 0.0001
48 | CUUAAGCUCUGGAUCUACUGGGUUACGUAA | 0.0464 ± 0.011

Row | Sequence | pre-steady-state target cleavage rate
49 | CUUAUCCUCUGGAGCUACUGGGUUACCUAA | 0.238 ± 0.052
50 | CUUAAGGAGUGGAUCUACUGGGUUACCUAAA | 0.0485 ± 0.015
51 | CUUAUCCUCUGGAUCUACUGGGUUACGUAA | 0.0586 ± 0.014
52 | CUUAAGGAGAGGAUCUCCUGGGUUACCUAA | 0.00487 ± 0.0048
53 | CUUAAGGAGACCUAGUACUGGGGUACCUAA | < 0.0001
54 | CUUAUCCUCUGGAUUUACUGGGUUACCUAA | 0.149 ± 0.022
55 | CUUAACCUCUGGAUCUACUGGGUAUGCUAA | 0.0798 ± 0.024
56 | CUUAACCUCUCGAUCUACUGGGAUACCUAA | 0.0514 ± 0.011
57 | CUUAUCCUCUGCAUCUACUGGGUUACCUAA | 0.275 ± 0.056
58 | CUUAAGCUCUAGAUCUACUGGGUUACCUAA | 0.0691 ± 0.012
59 | CUUAAGCUCUGGAUCUACAGGGAUACCUAA | 0.0216 ± 0.0073
60 | CUUAAGGAAUGGAUCUACUGGGUUACCUAA | 0.0666 ± 0.015
61 | CUUAUCGUCUGGAUCUACUGGGUAACCUAA | 0.0217 ± 0.0067
62 | CUUAAGCUCUGGAUCUACUAGGUUACCUAA | 0.0525 ± 0.016
63 | CUUAAGGUCUGGAUCUACUGGAUUACCUAA | 0.00949 ± 0.0056
64 | CUUAAGGUCUGGAUCUCCUGGGUUACCUAA | 0.0281 ± 0.013
65 | CUUAAGGUCUCGAUGUACUGGGUUACCUAA | 0.036 ± 0.015
66 | CUUAAGCUCUCGUUCUACUGGGUUACCUAA | 0.132 ± 0.028
67 | CUUAAGGAGAGGGAUCUACUGGGUUACCUAA | 0.00931 ± 0.0034
68 | CUUAACCUCUGGAUCUACUGGGAUUACCUAA | 0.0546 ± 0.018
69 | CUUAUCCACUGGAACUACUGGGUUACCUAA | 0.076 ± 0.014
70 | CUUAACCUCUGGUUCUUCUGGGUUACCUAA | 0.169 ± 0.046
71 | CUUAAGGACUGGAUCUACUGGGUUACCUAG [g2:g22:cont:t1G] | 0.0474 ± 0.017
72 | CUUAACCUCUCGAACUACUGGGUUACCUAA | 0.0843 ± 0.013
